PubChem BioAssay AID686978 (National Center for Advancing Translational Sciences (NCATS), 2013)
The campaign covered roughly 420,000 compounds. About 64,000 (15%) were called active. This list was built around the results that the source calls inconclusive (neither active nor inactive); the mix of calls is not that of the screen. Calls come from the whole dose curve; as a rule, active = well fitted inhibition curve with a large enough effect; inconclusive = small, poorly fitted or top-dose-only effect; inactive = flat fitted curve, though single readings scatter. Potencies of inconclusive entries are left out as doubtful fits.

experiment: qHTS for Inhibitors of human tyrosyl-DNA phosphodiesterase 1 (TDP1): qHTS in cells in absence of CPT; conditions: DT40 Tdp1-/- hTDP1 cells, no CPT, ATP luminescence, 48 h; activity change, negative = growth inhibition: at 46.2 µM (top of the series) unless noted; note: nearly all actives have a fitted effect of over 55% in size
In short: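 Seeded 400 DT40-hTDP1 cells/well (vehicle DMSO, no 20 nM CPT); pinned compounds; ≥48 hr at 37 °C; CellTiter-Glo luminescence as viability measure.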
% is set by controls: 0 for no effect and ±100 for the full control effect; potency is the fitted concentration of half-maximal effect; tags give direction and shape of the fitted curve.

Row | SMILES | Potency | activity change, negative = growth inhibition
1 | C/C(=N\Nc1nc2ccccc2s1)c1cccs1 | inconclusive [inhibitor, single point] | –
2 | O=C(OCc1cc(=O)n2nc(C3CC3)sc2n1)c1ccccc1Cl | – | inconclusive: -31% [inhibitor]
3 | CC(=O)c1cccc(NC(=O)c2cc(C)nc3c2c(C)nn3-c2cccc(Cl)c2C)c1 | active: 18.4 µM | –
4 | COc1ccc(S(=O)(=O)Nc2ccc3ccccc3c2)cc1C | inconclusive [inhibitor, single point] | –
5 | FC(F)(F)c1cnc2c(c1)[nH]c(=S)n2-c1ccc(Cl)cc1 | inconclusive [inhibitor, partial curve] | –
6 | CCN1C(=O)[C@H]2[C@@H](c3ccc(C)cc3)N3C(=O)N(c4cccc(Cl)c4)C(=O)[C@@]3(Cc3ccccc3)[C@H]2C1=O | inconclusive [inhibitor, single point] | –
7 | CC[C@]1(C(=O)OC)[C@H]2C(=O)N(C)C(=O)[C@H]2[C@H]2CN(C)C(=NCc3ccccc3)N21 | inactive | –
8 | COc1ccc(C(=O)CC(SCC(NC(C)=O)C(=O)O)c2ccc(Cl)cc2)cc1OC (stereo unspecified) | inconclusive [inhibitor, single point] | –
9 | CCC1(c2ccc(Cl)cc2)NC(=O)N(CC(=O)N2CCN(C(=O)c3ccco3)CC2)C1=O (stereo unspecified) | inconclusive [inhibitor, single point] | –
10 | COc1ccc(CNc2ncnc3c2[nH]c2cc(OC)c(OC)cc23)cc1 | inconclusive [inhibitor, single point] | –
11 | CCOC(=O)c1ccc(NC(=O)NCc2ccncc2)cc1 | inconclusive [inhibitor, partial curve] | –
12 | COC(=O)c1c(-c2ccc(Cl)cc2)noc1N1CCN(c2ccc(F)cc2)CC1 | active: 20.6 µM | –
13 | CCCN(CC1CCCO1)C(=O)c1cc(COc2ccc(F)cc2F)on1 (stereo unspecified) | inconclusive [inhibitor, partial curve] | –
14 | COc1ncc2nc(-c3cccc(C#N)c3)c(=O)n(CCC#N)c2n1 | inactive | –
15 | C/C(=N/NC(=O)CSc1nc2ccccc2n1C)c1ccncc1 | inactive | –
16 | Cc1cc(C)c(NC(=O)c2ccc3c(c2)CCN3S(C)(=O)=O)c(C)c1 | inconclusive [inhibitor, single point] | –
17 | CC(CN1CCN(C)CC1)OC(=O)c1ccc(Cl)cc1 (stereo unspecified) | inactive | –
18 | COc1ccc(-c2nc3cc(C)c(Br)c(C)n3c2Cc2cccc(F)c2)cc1OC | inconclusive [inhibitor, single point] | –
19 | COc1ccc(C(C)(NC(C)=O)c2nc(-c3ccc(F)cc3OC)cs2)cc1 (stereo unspecified) | active: 13 µM | –
20 | O=C(Nc1ccc(F)cc1)c1cc(-c2ccncc2)nc2c(Cl)cccc12 | inconclusive [inhibitor, single point] | –
21 | CNC(=S)NNC(=O)Cc1ccc(OC)c(OC)c1 | inactive | –
22 | O=C(Cn1cc2c(n1)CCCC2)NCCCN1CCN(c2ccccc2F)CC1 | inconclusive [inhibitor, single point] | –
23 | CCN(C(=O)COn1nnc2ccc(S(=O)(=O)N(C)C)cc21)C1CCS(=O)(=O)C1 (stereo unspecified) | inactive | –
24 | N#C/C(=C(/O)CSc1nnc(Cc2cccs2)n1C1CCCCC1)c1nc2ccccc2[nH]1 | inconclusive [inhibitor, single point] | –

Row | SMILES | Potency | activity change, negative = growth inhibition
25 | Cc1ccc(S(=O)(=O)/N=C2/NC(=O)/C(=C/c3ccccc3)S2)cc1 | inconclusive [inhibitor, single point] | –
26 | Cc1ccc(NC(=O)CSCC(=O)Nc2cccc(S(=O)(=O)N3CCCCCC3)c2)cc1 | inconclusive [inhibitor, full curve] | –
27 | CCOC(=O)C1=CN(Cc2cccc(F)c2)S(=O)(=O)N(C)C1c1ccc2ccccc2c1 (stereo unspecified) | inconclusive [inhibitor, partial curve] | –
28 | COc1ccc(NC(=O)c2csnn2)cc1 | inactive | –
29 | Cc1ccc(F)cc1-c1cc(C(=O)NCc2cc(C(F)(F)F)cc(C(F)(F)F)c2)[nH]n1 | inconclusive [inhibitor, single point] | –
30 | CC(C)NC(=O)COC(=O)CNC(=O)c1cc(Cl)cc([N+](=O)[O-])c1 | inactive | –
31 | O=CC(O)C1OC(=O)C(O)C1O (stereo unspecified) | inactive | –
32 | CNC(=O)c1c(NC(=O)c2nc(SCc3ccc(C)cc3)ncc2Cl)sc2c1CCCC2 | inactive | –
33 | NC(=O)CC(NC(=O)c1cccc(Br)c1)c1ccc(NC2CCCCCCC2)c([N+](=O)[O-])c1 (stereo unspecified) | active: 16.4 µM | –
34 | CCOC(=O)CSc1nnc(CNC(=O)c2cc(OC)c(OC)c(OC)c2)n1C | inconclusive [inhibitor, single point] | –
35 | Cc1cccc2c(N3CCCC3)nc(CNS(=O)(=O)c3ccc4ccccc4c3)nc12 | inconclusive [inhibitor, single point] | –
36 | O=S(=O)(CCN1CCN(c2ccccc2O)CC1)c1cc(Cl)ccc1Cl | inconclusive [inhibitor, single point] | –
37 | CCC(C)(C)n1nnnc1C(c1ccc(C)cc1)N1CCN(Cc2ccc3c(c2)OCO3)CC1 (stereo unspecified) | inconclusive [inhibitor, single point] | –
38 | O=C(c1ccc(Cl)c(S(=O)(=O)N2CCCC2)c1)N1CCN(Cc2ccccc2)CC1 | inconclusive [inhibitor, single point] | –
39 | O=C(NCc1ccncc1)C1CCN(S(=O)(=O)c2ccc(Cl)c(C(F)(F)F)c2)CC1 | inconclusive [inhibitor, single point] | –
40 | CC(=O)Nc1ccc(C(=O)Nc2ccncc2)cc1 | inactive | –
41 | O=C(CCS(=O)(=O)c1ccccc1)Nc1nc(-c2ccc(F)cc2)cs1 | inconclusive [inhibitor, single point] | –
42 | COCCNC(=O)c1cccc(OC2CCN(Cc3ccccc3C)CC2)c1 | inactive | –
43 | CCOC(=O)c1cc(S(=O)(=O)N2CCN(c3cccc(C)c3C)CC2)[nH]n1 | inconclusive [inhibitor, partial curve] | –
44 | CCc1ccc(OCC(=O)NNC(=S)NC(=O)C2CCCCC2)c(Br)c1 | inconclusive [inhibitor, single point] | –
45 | COc1ccc(CCNC(=O)c2ccc(Br)o2)cc1Br | inconclusive [inhibitor, single point] | –
46 | CC(C)(C)NC(=S)Nc1ccc(Br)cc1 | inconclusive [inhibitor, single point] | –
47 | COc1cccc(CNC(=O)C2CCN(C(=O)c3cnn(-c4ccccc4)c3-n3cccc3)CC2)c1 | inconclusive [inhibitor, single point] | –
48 | COc1ccc(-c2cc(C(C)=O)c(C)n2CCC(=O)NCc2ccc(C)cc2)cc1 | inconclusive [inhibitor, single point] | –

Row | SMILES | Potency | activity change, negative = growth inhibition
49 | O=C(O)c1cnc2[nH]c3ccccc3n2c1=O | inactive | –
50 | COC(=O)[C@H]1Cc2cnoc2C[C@]1(C)C(=O)O | inactive | –
51 | COCCCNCCCCOc1ccccc1-c1ccccc1 | active: 14.6 µM | –
52 | CCOC(=O)c1c(NC(=O)CCNCc2ccco2)sc2c1CCC2 | inconclusive [inhibitor, partial curve, poor fit] | –
53 | CCN1C(=O)C(=CC=CN(C)c2ccccc2)SC1=S | inconclusive [inhibitor, single point] | –
54 | COc1ccccc1OCC(=O)N1CCC(c2nc3ccccc3o2)CC1 | inconclusive [inhibitor, single point] | –
55 | C/C=C(/C)C(=O)OC(C)(C)[C@@H]1Cc2c(ccc3ccc(=O)oc23)O1 | inconclusive [inhibitor, single point] | –
56 | Cc1ccc(-n2ncc(C(=O)NC3CCCCC3)c2C2CCN(C(=O)OC(C)(C)C)CC2)cc1 | active: 23.1 µM | –
57 | Cn1c(SCc2ccccc2)nc(N)c(N=O)c1=O | active: 14.6 µM | –
58 | O=C(NCCc1csc(-c2cccnc2)n1)c1ccc(Br)o1 | active: 18.4 µM | –
59 | COCC(C)n1c(SCC(=O)N2CCOCC2)nc2ccccc2c1=O (stereo unspecified) | – | inconclusive: -32% [inhibitor]
60 | CCCOc1ccc(C2=CSC3=NCCN23)cc1Cl | inconclusive [inhibitor, single point] | –
61 | COc1ccc(N2CCN(S(=O)(=O)c3cnc[nH]3)CC2)cc1 | inactive | –
62 | COc1ccc(CNc2nc(Cl)c(C#N)s2)cc1 | inconclusive [inhibitor, single point] | –
63 | CSCCC(c1nnnn1C1CCCC1)N1CCN(C/C=C/c2ccccc2)CC1 (stereo unspecified) | inconclusive [inhibitor, single point] | –
64 | O=C(CCl)Nc1cn(-c2ccccc2)nc1-c1ccc(F)cc1 | active: 3.66 µM | –
65 | COc1ccc(-c2ccc(CN3C(C(C)C)C(=O)N(Cc4cn(Cc5ccco5)nn4)CCS3(=O)=O)cc2)cn1 (stereo unspecified) | active: 20.6 µM | –
66 | CCC1CCc2sc(C(=O)N(C)CC(=O)Nc3ccc(OC)cc3)cc2C1 (stereo unspecified) | active: 20.6 µM | –
67 | COc1ccc(Nc2nnc(-c3ccc(C)c(S(=O)(=O)NCCO)c3)c3ccccc23)cc1C(N)=O | inactive | –
68 | COC(=O)CC1C(=O)NCCN1C(=O)c1cc(OC)c(OC)cc1OC (stereo unspecified) | inactive | –
69 | CN(CC(=O)Nc1nc2ccccc2s1)S(=O)(=O)c1ccc(Cl)cc1 | inconclusive [inhibitor, single point] | –
70 | O=C(Cc1ccc(F)cc1)Nc1cccc2cccnc12 | inactive | –
71 | COC(=O)c1cccc(NC(=O)Nc2ccc(Cl)c(Cl)c2)c1 | inconclusive [inhibitor, single point] | –
